In the supplement of paper PMC4967469:

Tests used:
Test in all cases: Viability of human cancer cell lines after 72 h of drug (GDSC screen)
Erlotinib = compound: C#Cc1cccc(Nc2ncnc3cc(OCCOC)c(OCCOC)cc23)c1 [Erlotinib]; conditions: top dose 2 µM
Protocol: (§1)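 Human cancer cell lines in 384-well plates, medium with 10% serum, drug for 72 h over a 256-fold dose range (nine 2-fold or five 4-fold steps up to the top dose). Adherent lines were fixed and stained with the nucleic acid dye Syto60, suspension lines read with resazurin; signal relative to control wells, capped at 0 and 100%. One two-parameter sigmoid per drug and line, fitted in a mixed model over all curves with the slope shared within a line.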

QL-XI-92 = compound: C=CC(=O)Nc1cc(NC(=O)c2ccc(C)c(NC(=O)c3ccno3)c2)cc(C(F)(F)F)c1 [QL-XI-92]; conditions: top dose 10.24 µM; top dose inferred
Protocol: as §1

Vinorelbine = compound: CCC1=C[C@@H]2CN(C1)Cc1c([nH]c3ccccc13)[C@@](C(=O)OC)(c1cc3c(cc1OC)N(C)[C@H]1[C@@](O)(C(=O)OC)[C@H](OC(C)=O)[C@]4(CC)C=CCN5CC[C@]31[C@@H]54)C2 [Vinorelbine]; conditions: top dose 0.064 µM; top dose inferred
Protocol: as §1

AG-014699 = compound: CNCc1ccc(-c2[nH]c3cc(F)cc4c3c2CCNC4=O)cc1 [AG-014699]; conditions: top dose 5 µM; top dose inferred
Protocol: as §1

XL-184 = compound: COc1cc2nccc(Oc3ccc(NC(=O)C4(C(=O)Nc5ccc(F)cc5)CC4)cc3)c2cc1OC [XL-184]; conditions: top dose 5.12 µM; top dose inferred
Protocol: as §1

WHI-P97 = compound: COc1cc2ncnc(Nc3cc(Br)c(O)c(Br)c3)c2cc1OC [WHI-P97]; conditions: top dose 10.24 µM; top dose inferred
Protocol: as §1

Gefitinib = compound: COc1cc2ncnc(Nc3ccc(F)c(Cl)c3)c2cc1OCCCN1CCOCC1 [Gefitinib]; conditions: top dose 0.5 µM
Protocol: as §1

S-Trityl-L-cysteine = compound: N[C@@H](CSC(c1ccccc1)(c1ccccc1)c1ccccc1)C(=O)O [S-Trityl-L-cysteine]; conditions: top dose 5.12 µM; top dose inferred
Protocol: as §1

EHT 1864 = compound: O=c1cc(CN2CCOCC2)occ1OCCCCCSc1ccnc2cc(C(F)(F)F)ccc12 [EHT 1864]; conditions: top dose 10 µM; top dose inferred
Protocol: as §1

NU-7441 = compound: O=c1cc(N2CCOCC2)oc2c(-c3cccc4c3sc3ccccc34)cccc12 [NU-7441]; conditions: top dose 2 µM; top dose inferred
Protocol: as §1

Phenformin = compound: N=C(N)NC(=N)NCCc1ccccc1 [Phenformin]; conditions: top dose 4000 µM; top dose inferred
Protocol: as §1

| Cell Line | AUC (Erlotinib) | IC50 (Erlotinib) | AUC (QL-XI-92) | IC50 (QL-XI-92) | AUC (Vinorelbine) | IC50 (Vinorelbine) | AUC (AG-014699) | IC50 (AG-014699) | AUC (XL-184) | IC50 (XL-184) | AUC (WHI-P97) | IC50 (WHI-P97) | AUC (Gefitinib) | IC50 (Gefitinib) | AUC (S-Trityl-L-cysteine) | IC50 (S-Trityl-L-cysteine) | AUC (EHT 1864) | IC50 (EHT 1864) | AUC (NU-7441) | IC50 (NU-7441) | AUC (Phenformin) | IC50 (Phenformin) |
| --- | --- | --- | --- | --- | --- | --- | --- | --- | --- | --- | --- | --- | --- | --- | --- | --- | --- | --- | --- | --- | --- | --- |
| EW-24 (Ewing sarcoma, semi-adherent) | 0.71 | 0.449 µM | 0.993 | > 10.2 µM | 0.949 | > 0.064 µM | 0.992 | > 5 µM | 0.989 | > 5.12 µM | 0.663 | 1.71 µM | 0.979 | > 0.5 µM | 0.932 | > 5.12 µM | 0.903 | > 10 µM | 0.988 | > 2 µM | – | – |
| GA-10 (Burkitt lymphoma, suspension) | 0.646 | 0.294 µM | – | – | 0.361 | 0.00177 µM | 0.991 | > 5 µM | – | – | – | – | 0.983 | > 0.5 µM | 0.566 | 0.47 µM | 0.985 | > 10 µM | 0.927 | > 2 µM | – | – |
| IM-9 (myeloma, suspension) | 0.992 | > 2 µM | – | – | 0.97 | > 0.064 µM | 0.992 | > 5 µM | – | – | – | – | 0.986 | > 0.5 µM | 0.988 | > 5.12 µM | 0.937 | > 10 µM | 0.986 | > 2 µM | – | – |
| KARPAS-231 (B-cell leukaemia, suspension) | 0.981 | > 2 µM | 0.461 | 0.512 µM | 0.36 | 0.00181 µM | 0.974 | > 5 µM | – | – | – | – | 0.992 | > 0.5 µM | 0.822 | 2.14 µM | 0.983 | > 10 µM | 0.839 | 0.938 µM | – | – |
| KP-N-YN (neuroblastoma, adherent) | 0.843 | 1.63 µM | 0.982 | > 10.2 µM | 0.79 | 0.0314 µM | – | – | 0.987 | > 5.12 µM | 0.951 | > 10.2 µM | 0.959 | > 0.5 µM | 0.875 | > 5.12 µM | – | – | 0.959 | > 2 µM | 0.987 | > 4000 µM |
| L-363 (myeloma, suspension) | 0.991 | > 2 µM | 0.919 | > 10.2 µM | 0.645 | 0.00949 µM | 0.971 | > 5 µM | 0.976 | > 5.12 µM | 0.98 | > 10.2 µM | 0.98 | > 0.5 µM | 0.634 | 0.711 µM | 0.923 | > 10 µM | 0.94 | > 2 µM | – | – |
| LP-1 (myeloma, suspension) | 0.99 | > 2 µM | 0.947 | > 10.2 µM | 0.957 | > 0.064 µM | 0.983 | > 5 µM | 0.929 | > 5.12 µM | 0.971 | > 10.2 µM | 0.989 | > 0.5 µM | 0.851 | 2.93 µM | 0.919 | > 10 µM | 0.993 | > 2 µM | – | – |

Lines with a small IC50 respond at low doses; fits outside the tested doses are given as limits. AUC sums up the same curve from the lowest dose to the 256-fold higher top dose: 1 means no effect, lower means more sensitive. For some assays here: A top dose marked as inferred comes from the curve model; the source does not state it.
